# Screen size: about 310,000 compounds; about 2,200 (0.71%) showed an effect of 50% or more. Effects have a minus sign here. The list shows a part of the results.
# Biological target: human ether-à-go-go-related gene (hERG) potassium channel (human, UniProt Q12809)
# Assay: primary screen, population patch clamp on CHO cells stably expressing hERG
# human ether-à-go-go-related gene (hERG) potassium channel, sequence (Q12809 whole entry, looked up): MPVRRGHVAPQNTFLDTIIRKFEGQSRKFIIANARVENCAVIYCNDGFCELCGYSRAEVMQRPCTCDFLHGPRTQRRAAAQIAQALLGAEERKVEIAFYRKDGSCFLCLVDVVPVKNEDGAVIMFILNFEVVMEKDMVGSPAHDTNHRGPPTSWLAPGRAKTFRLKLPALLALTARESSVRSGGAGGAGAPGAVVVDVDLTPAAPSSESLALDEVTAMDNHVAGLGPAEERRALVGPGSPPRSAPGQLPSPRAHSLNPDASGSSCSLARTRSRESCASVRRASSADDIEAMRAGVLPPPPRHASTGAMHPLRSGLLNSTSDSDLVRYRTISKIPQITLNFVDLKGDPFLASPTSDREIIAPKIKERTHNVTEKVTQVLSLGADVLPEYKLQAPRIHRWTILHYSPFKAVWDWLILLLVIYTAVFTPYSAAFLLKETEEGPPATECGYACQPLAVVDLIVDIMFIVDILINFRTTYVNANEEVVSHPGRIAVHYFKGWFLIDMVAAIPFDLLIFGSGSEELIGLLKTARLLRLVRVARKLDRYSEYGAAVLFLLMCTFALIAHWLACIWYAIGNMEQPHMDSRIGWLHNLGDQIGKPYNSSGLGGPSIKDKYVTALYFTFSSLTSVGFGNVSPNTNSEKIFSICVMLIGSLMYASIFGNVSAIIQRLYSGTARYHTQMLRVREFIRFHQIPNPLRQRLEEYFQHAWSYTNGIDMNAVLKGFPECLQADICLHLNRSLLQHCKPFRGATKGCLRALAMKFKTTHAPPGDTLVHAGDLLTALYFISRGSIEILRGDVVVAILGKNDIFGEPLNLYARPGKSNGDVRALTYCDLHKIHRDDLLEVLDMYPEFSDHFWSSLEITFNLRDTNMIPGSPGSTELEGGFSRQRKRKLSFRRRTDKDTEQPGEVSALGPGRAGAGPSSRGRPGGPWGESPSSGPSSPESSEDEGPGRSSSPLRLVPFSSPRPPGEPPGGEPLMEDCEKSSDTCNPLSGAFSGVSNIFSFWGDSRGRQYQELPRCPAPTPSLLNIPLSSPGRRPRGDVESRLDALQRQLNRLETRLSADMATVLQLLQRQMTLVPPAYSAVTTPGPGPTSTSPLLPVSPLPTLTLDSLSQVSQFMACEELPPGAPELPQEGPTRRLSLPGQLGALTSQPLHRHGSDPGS
row,SMILES,"hERG current change (%, negative = inhibition) at 1uM [%]"
1,Cc1cc(NC(=O)CCC(=O)N(c2ccccc2)C(C(=O)NC2CCCC2)c2ccccc2C)no1 (stereo not drawn),4.32
2,O=C(COC(=O)C12CC3CC(CC(O)(C3)C1)C2)NC12CC3CC(CC(C3)C1)C2,12
3,Cc1cc(OCCN2CCCCCC2)ccc1[N+](=O)[O-].O=C(O)C(=O)O,-12.8
4,Cc1ccc(NC(=O)CSc2ncccn2)c([N+](=O)[O-])c1,9.32
5,COc1cccc(C(C(=O)NC2CCCC2)N(C(=O)CNC(=O)c2ccco2)c2cccnc2)c1 (stereo not drawn),18.1
6,OCC[C@H]1C[C@@H](O)[C@H](O)[C@]2(OCCCc3ccccc32)O1,-13.8
7,CCCc1nc(SCC(=O)c2ccc(OC)cc2)c2ccccc2n1,1.74
8,COc1cccc(C(=O)OCC(=O)Nc2ccc(N3CCOCC3)cc2)c1,12.9
9,N#Cc1ccc(-c2ccc(F)cc2)nc1Sc1ccccc1,13.7
10,COc1ccc(NN=Nc2ccc([N+](=O)[O-])cc2)cc1,15.5
11,c1cncc(CNc2cccc(-c3nc4ccccc4[nH]3)c2)c1,10.9
12,CCCN(Cc1nnc(-c2cccs2)o1)C(=O)CN1C(=O)NC2(CCCCC2C)C1=O (stereo not drawn),-3.04
13,COc1ccc(CNC(=O)COc2ccc(S(=O)(=O)N3CCOCC3)cc2)cc1,2.05
14,O=C(N1CCCC1)C(F)(F)Oc1ccc(F)cc1,5.88
15,CCOc1ccc2ccccc2c1CNc1nnnn1C,6.18
16,CCC(CC)c1nnc(NC(=O)c2ccc3c(c2)OCO3)s1,2.22
17,CCCC12CN3CCN(C1)CC(CCC)(C3)C2=O,13.7
18,Cc1c(C(=O)N2CCC3(CC2)OCCO3)sc2ncnc(N3CCN(c4ccccn4)CC3)c12,-8.3
19,Cc1ccc(OCc2n[nH]c(=S)n2-c2ccccc2)cc1,12.1
20,CCOC(=O)/C(N=O)=C(\O)C1CCN(C(=O)OCC)CC1,11.2
21,CCN1CCN(c2ccc(S(=O)(=O)N3CCOCC3)cc2NC(=O)/C=C/c2cccc(OC)c2OC)CC1,12.7
22,CCOc1ccccc1-c1nc(-c2cc3ccccc3nc2OC)no1,4.97
23,O=C(NCc1ccncc1)c1cnccn1,11.5
24,O=S(=O)(c1cccc(S(=O)(=O)N2CCC(Cc3ccccc3)CC2)c1)N1CCOCC1,7.64
